Test results: PubChem BioAssay AID485294 (National Center for Advancing Translational Sciences (NCATS), 2010)
Out of some 370,000 compounds screened, about 150 (0.041%) were called active. This list was built around the results that the source calls inconclusive (neither active nor inactive); the mix of calls is not that of the screen. Calls come from the whole dose curve; as a rule, active = well fitted inhibition curve with a large enough effect; inconclusive = small, poorly fitted or top-dose-only effect; inactive = flat fitted curve, though single readings scatter. No potency is given beside an inconclusive call; the fits are too rough.

Biological target: Beta-lactamase (Escherichia coli (strain K12)) (UniProt P00811)
Experiment: qHTS Inhibitors of AmpC Beta-Lactamase (assay with detergent); note: nearly all actives have a fitted effect of over 25% in size
Settings: AmpC hydrolysis of nitrocefin, absorbance 480 nm, 0.01% Triton; series mostly up to 114 µM
Procedure, shortened: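 20 mM phosphate pH 7.0 + 0.01% (detergent screen) or 0.0001% Triton X-100; 5.3 nM AmpC reagent; cpd preinc 15 min RT; nitrocefin (800 uM stock) to start; A480 q20 s × 4 min; Activity was normalised to no-enzyme and no-compound control wells.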
Potency is the fitted concentration of half-maximal effect; tags give direction and shape of the fitted curve.

UniProt P00811, sequence (P00811 whole entry, looked up): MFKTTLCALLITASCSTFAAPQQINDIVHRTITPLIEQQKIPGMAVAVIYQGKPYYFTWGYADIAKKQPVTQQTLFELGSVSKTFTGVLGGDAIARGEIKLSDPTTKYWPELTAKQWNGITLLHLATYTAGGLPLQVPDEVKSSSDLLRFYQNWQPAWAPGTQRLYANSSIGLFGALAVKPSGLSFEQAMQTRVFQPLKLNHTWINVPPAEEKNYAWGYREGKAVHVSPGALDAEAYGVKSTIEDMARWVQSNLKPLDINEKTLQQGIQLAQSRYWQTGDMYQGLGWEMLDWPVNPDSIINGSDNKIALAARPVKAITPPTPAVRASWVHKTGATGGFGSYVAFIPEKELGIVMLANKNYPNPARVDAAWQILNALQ

SMILES	Potency
Cc1ccc(-c2nn3c(C)nnc3s2)cc1NC(=O)c1cccs1	inconclusive [inhibitor, single point]
O=S1OCCN1c1ccccc1 (configuration not stated)	inconclusive [inhibitor, full curve, poor fit]
CCOc1ccc(N(CC(=O)N/N=C/c2ccc(OC(C)C)cc2)S(C)(=O)=O)cc1	inconclusive [inhibitor, partial curve, poor fit]
CCOC(=O)Nc1sc2c(c1C#N)CCCC2	inactive
Cn1cccc1CNCc1ccccc1Cl	inconclusive [inhibitor, partial curve]
COc1ccccc1N1CCN(C(=O)c2cc(-c3ccc(Cl)c(Cl)c3)on2)CC1	inconclusive [inhibitor, partial curve, poor fit]
CCOc1ccc(C(=O)COC(=O)c2nn(CC)c(=O)c3ccccc23)cc1	inactive
COc1c(C)cc(C(=O)C2CCCN(Cc3cccc(O)c3)C2)cc1C (configuration not stated)	inactive
Cc1cccc(CNC(=O)CN2C(=O)CCn3nc(-c4cn(C)c5ccccc45)cc32)c1	inactive
COc1ccc(N2CC(NS(=O)(=O)c3cccs3)CC2=O)cc1OC (configuration not stated)	inconclusive [inhibitor, full curve, poor fit]
CCS(=O)(=O)N1CCC(C(=O)NCc2ccc3c(c2)OCO3)CC1	inactive
COc1ccc(NC(=O)Nc2c(C)n(C)n(-c3ccccc3)c2=O)c(OC)c1	inconclusive [inhibitor, full curve]
Cc1ccc(SCc2nc(-c3ccc(C(=O)NCC(C)c4ccccc4)cc3)oc2C)cc1 (configuration not stated)	inconclusive [inhibitor, single point]
COc1ccc(NC(=O)COC(=O)Cn2cnc3ccccc3c2=O)c(OC)c1	inconclusive [inhibitor, full curve, poor fit]
C/C(=N\NC(=O)c1cc(-c2ccc(Br)s2)[nH]n1)c1ccncc1	inconclusive [inhibitor, full curve]
C/C(=N\NC(=O)c1sccc1C)c1cccnc1	inconclusive [inhibitor, full curve, poor fit]
O=[N+]([O-])c1cc2c(c(CSc3nnc4ccccn34)c1)OCOC2	inconclusive [inhibitor, full curve, poor fit]
CCC1CCCCN1C(=O)CSc1nc(N)cc(=O)[nH]1 (configuration not stated)	inconclusive [inhibitor, full curve, poor fit]
COc1cc(C(=O)NCCc2cn3ccccc3n2)cc(OC)c1OC	inconclusive [inhibitor, full curve]
Cc1cccc[n+]1CC(=O)c1ccc(NC(=O)c2ccccc2)cc1	inconclusive [inhibitor, partial curve, poor fit]
CC(=O)c1cccc(NC(=O)NC2CCCCCCC2)c1	inconclusive [inhibitor, full curve, poor fit]
O=C(O)c1cn[nH]c1-n1cnnn1	inconclusive [inhibitor, full curve]
Cc1[nH]c2ccc(Br)cc2c(=O)c1CN1CCOCC1	inconclusive [inhibitor, full curve, poor fit]

SMILES	Potency
CCOc1ccc(N2C(=O)C(CC(=O)Nc3ccccc3)N(Cc3ccccn3)C2=S)cc1 (configuration not stated)	inconclusive [inhibitor, single point]
Cc1cc(Cl)c(S(=O)(=O)Nc2cccc(O)c2)cc1OCC(N)=O	inconclusive [inhibitor, partial curve]
CCCOc1ccc([N+](=O)[O-])c(N)c1	inconclusive [inhibitor, partial curve]
CC1OC(OC2C(CO)OC(OC3C(CO)OC(O)C(O)C3O)C(O)C2O)C(O)C(O)C1N[C@@H]1C=C(CO)[C@@H](O)C(O)[C@H]1O (some centres not stated)	inconclusive [inhibitor, full curve, poor fit]
COc1ccc(S(=O)(=O)NCC(=O)NCc2cc(=O)n(C)c(=O)n2C)cc1	inconclusive [inhibitor, partial curve, poor fit]
COc1ccc(CNC(=O)C2CCN(S(=O)(=O)c3ccc4c(c3)N(C(C)=O)CCO4)CC2)cc1	inactive
COc1ccc(-c2cc(-c3ccccc3)nc3ncnn23)cc1	inactive
COc1cccc(NC(=O)CN(C)C(=O)CSCC(=O)Nc2ccc(C)cc2)c1	inactive
COc1ccccc1NC(=O)CC(c1ccc(OC(C)C)cc1)c1ccccc1OC (configuration not stated)	inconclusive [inhibitor, full curve, poor fit]
O=C(/C=C/c1cccs1)N1CCCCC1	inactive
CC1=NC(=O)C(N=Nc2cccc(C(=O)O)c2)N1c1ccccc1 (configuration not stated)	inconclusive [inhibitor, full curve, poor fit]
O=C(Nc1ccccc1)c1ccc(-c2ccccc2Cl)o1	inconclusive [inhibitor, partial curve, poor fit]
O=C(Nc1ccccc1)C1CCN(S(=O)(=O)c2cccs2)CC1	inconclusive [inhibitor, partial curve, poor fit]
O=C(c1cn(-c2ccc(Cl)c(Cl)c2)nn1)C1CC1	inconclusive [inhibitor, full curve, poor fit]
CCOC(=O)COc1cccc(C2NC(=O)c3ccccc3O2)c1 (configuration not stated)	inconclusive [inhibitor, partial curve, poor fit]
CCCCOc1ccc(C(=O)NCC(=O)NC2CC2)cc1	inactive
O=C(CNS(=O)(=O)c1cccc(Cl)c1)Nc1ccc(-c2nc3ccccc3s2)cc1	inconclusive [inhibitor, full curve]
Cc1ccc(NC(=O)N2CCc3ccccc3C2)c(C)c1	inconclusive [inhibitor, full curve]
CCOC(=O)c1ccc(N2C(=O)C(O)=C(C(C)=O)C2c2ccccn2)cc1 (configuration not stated)	inconclusive [inhibitor, full curve]
CC(C)(C)c1cc(NC(=O)COC(=O)c2ccc(O)cc2O)n(-c2ccccc2)n1	inconclusive [inhibitor, full curve, poor fit]
COc1c(Cl)ccc(Cl)c1C(=O)NC(=S)N1CCOCC1	inactive
COc1ccc(NC(=O)c2cc(C3CC3)on2)c(OC)c1	inactive
COc1ccc(N(C)C(=O)Nc2ccc3c(c2)nnn3C)cc1	inconclusive [inhibitor, full curve, poor fit]

SMILES	Potency
CNC(=O)CSc1cn(CC(=O)N(C(C)C)C(C)C)c2ccccc12	inactive
Cc1nc2sc(C(c3cccs3)N3CCN(c4ccccc4)CC3)c(O)n2n1 (configuration not stated)	inconclusive [inhibitor, full curve]
COc1ccc(N2C(=O)N(Cc3cccc(F)c3)c3ccccc3S2(=O)=O)cc1	inconclusive [inhibitor, partial curve, poor fit]
O=[N+]([O-])c1ccc2nonc2c1Nc1ccccc1	inactive
CCCc1cc(=O)oc2c3c(cc(OCC(=O)NCC4CCC(C(=O)O)CC4)c12)OC(C)(C)CC3 (configuration not stated)	inconclusive [inhibitor, full curve, poor fit]
COC(=O)c1ccc(C2C(C(=O)OC(C)C)=C(C)N=C3SCCC(=O)N32)cc1 (configuration not stated)	inconclusive [inhibitor, partial curve]
O=S(=O)(NCCN1CCOCC1)c1cccc(C(F)(F)F)c1	inconclusive [inhibitor, full curve, poor fit]
Oc1[nH]c2ccccc2c1N=Nc1nc2ccccc2s1	inactive
Cc1cc(=O)n2nc(-c3ccccc3)sc2n1	inactive
COc1ccccc1NS(=O)(=O)c1cc(NC(=O)CCc2nc3ccccc3c(=O)[nH]2)ccc1C	inconclusive [inhibitor, full curve, poor fit]
O=C(CCN1C(=O)c2ccccc2S1(=O)=O)Nc1ccc(F)c([N+](=O)[O-])c1	inconclusive [inhibitor, full curve, poor fit]
COc1ccc(-n2c3c(cc(-c4nc(-c5ccc(Cl)cc5)cs4)c2=O)C(=O)CC(C)(C)C3)cc1Cl	inactive
CN1CCC/C1=C1/C(=O)N(c2ccccc2)N=C1NC(=O)Nc1cccc(Cl)c1	inactive
COc1ccc(CCNc2nc3cc(OC)c(OC)cc3c3nc(-c4cccnc4)nn23)cc1OC	inconclusive [inhibitor, single point]
O=C(OCN1C(=O)c2ccccc2C1=O)c1ccccc1	inconclusive [inhibitor, full curve, poor fit]
O=C(COc1ccc(Cl)cc1Cl)N(Cc1ccco1)C1CCS(=O)(=O)C1 (configuration not stated)	inconclusive [inhibitor, full curve, poor fit]
COc1ccc(OC)c(NC(=O)N2CCN(Cc3nc4ccc(C)cc4o3)CC2)c1	inactive
CCOc1ccccc1NC(=O)CCn1ccnc1	inconclusive [inhibitor, full curve, poor fit]
CN(CC1CCOCC1)C(=O)CC1C(=O)NCCN1CC1CCCCC1 (configuration not stated)	inconclusive [inhibitor, single point]
CCOC(=O)Cc1csc(NC(=O)CN2CCCCC2)n1	inconclusive [inhibitor, partial curve, poor fit]
CCOC(=O)c1cc(CC)sc1NC(=O)COC(=O)C1CCC1	inactive
